No constants are given. Whether binding was seen depends on the method and setting. In cells and extracts the contact can be indirect. Some results given as binding are weak or reduced against the parent protein; the word gives no strength. For some of these results: Tags and fused reporters may be left off the sequences shown.
Key:
Myc-SuFu = biological target: T1, Myc-SuFu (UniProt Q9Z0P7); assay: co-IP; anti-Myc immunoprecipitates from lysates of C3H10T1/2 cells transfected with the indicated plasmids (Myc-SuFu, HA-Gli1, KIF3A phosphomimetic mutants) and cultured with NSC23766 10 μg/ml 48 h, blotted for HA
T1 sequence: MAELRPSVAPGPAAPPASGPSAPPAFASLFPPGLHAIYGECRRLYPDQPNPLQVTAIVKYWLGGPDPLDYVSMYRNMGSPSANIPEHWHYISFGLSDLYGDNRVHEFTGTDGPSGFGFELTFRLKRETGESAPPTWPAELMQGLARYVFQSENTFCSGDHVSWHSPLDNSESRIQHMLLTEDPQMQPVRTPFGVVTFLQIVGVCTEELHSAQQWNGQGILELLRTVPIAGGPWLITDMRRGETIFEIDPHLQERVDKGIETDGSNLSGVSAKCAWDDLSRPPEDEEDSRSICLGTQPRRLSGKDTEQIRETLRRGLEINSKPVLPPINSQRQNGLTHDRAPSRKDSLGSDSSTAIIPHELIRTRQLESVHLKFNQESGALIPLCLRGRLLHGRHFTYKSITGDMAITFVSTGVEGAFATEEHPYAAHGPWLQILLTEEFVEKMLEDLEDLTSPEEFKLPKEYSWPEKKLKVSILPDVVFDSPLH

The chains behind the UniProt entries cited, without tags or fusion partners. Residues count along the entry.
UniProt P47806: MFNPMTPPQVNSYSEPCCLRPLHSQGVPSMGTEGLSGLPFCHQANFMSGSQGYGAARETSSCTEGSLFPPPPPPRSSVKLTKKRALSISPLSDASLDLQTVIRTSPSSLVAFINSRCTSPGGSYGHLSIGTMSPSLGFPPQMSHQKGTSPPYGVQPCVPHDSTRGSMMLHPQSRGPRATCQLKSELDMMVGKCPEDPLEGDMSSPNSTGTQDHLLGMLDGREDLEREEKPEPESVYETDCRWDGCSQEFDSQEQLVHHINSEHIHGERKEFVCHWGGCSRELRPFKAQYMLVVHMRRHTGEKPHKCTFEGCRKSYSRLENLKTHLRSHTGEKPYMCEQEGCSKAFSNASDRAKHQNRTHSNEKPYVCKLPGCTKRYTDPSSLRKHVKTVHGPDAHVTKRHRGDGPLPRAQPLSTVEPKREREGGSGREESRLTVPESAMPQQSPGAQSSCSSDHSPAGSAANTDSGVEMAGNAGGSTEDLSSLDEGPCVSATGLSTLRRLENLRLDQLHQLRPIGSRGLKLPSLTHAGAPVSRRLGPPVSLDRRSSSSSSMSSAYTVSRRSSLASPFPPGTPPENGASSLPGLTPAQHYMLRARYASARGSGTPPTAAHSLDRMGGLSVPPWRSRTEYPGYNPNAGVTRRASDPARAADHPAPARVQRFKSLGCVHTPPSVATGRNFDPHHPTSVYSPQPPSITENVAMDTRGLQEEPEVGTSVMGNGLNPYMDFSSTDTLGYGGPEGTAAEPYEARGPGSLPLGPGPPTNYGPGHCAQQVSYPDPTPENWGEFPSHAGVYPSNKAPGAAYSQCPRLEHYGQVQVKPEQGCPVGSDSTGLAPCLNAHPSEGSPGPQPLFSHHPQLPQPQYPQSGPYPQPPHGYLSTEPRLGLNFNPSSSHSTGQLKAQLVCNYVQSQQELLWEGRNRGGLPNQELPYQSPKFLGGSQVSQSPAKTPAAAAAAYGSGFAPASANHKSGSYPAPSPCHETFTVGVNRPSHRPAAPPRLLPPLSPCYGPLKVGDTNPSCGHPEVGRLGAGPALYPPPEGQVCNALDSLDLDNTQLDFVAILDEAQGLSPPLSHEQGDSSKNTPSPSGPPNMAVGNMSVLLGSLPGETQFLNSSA
UniProt P56726, residues 33-793: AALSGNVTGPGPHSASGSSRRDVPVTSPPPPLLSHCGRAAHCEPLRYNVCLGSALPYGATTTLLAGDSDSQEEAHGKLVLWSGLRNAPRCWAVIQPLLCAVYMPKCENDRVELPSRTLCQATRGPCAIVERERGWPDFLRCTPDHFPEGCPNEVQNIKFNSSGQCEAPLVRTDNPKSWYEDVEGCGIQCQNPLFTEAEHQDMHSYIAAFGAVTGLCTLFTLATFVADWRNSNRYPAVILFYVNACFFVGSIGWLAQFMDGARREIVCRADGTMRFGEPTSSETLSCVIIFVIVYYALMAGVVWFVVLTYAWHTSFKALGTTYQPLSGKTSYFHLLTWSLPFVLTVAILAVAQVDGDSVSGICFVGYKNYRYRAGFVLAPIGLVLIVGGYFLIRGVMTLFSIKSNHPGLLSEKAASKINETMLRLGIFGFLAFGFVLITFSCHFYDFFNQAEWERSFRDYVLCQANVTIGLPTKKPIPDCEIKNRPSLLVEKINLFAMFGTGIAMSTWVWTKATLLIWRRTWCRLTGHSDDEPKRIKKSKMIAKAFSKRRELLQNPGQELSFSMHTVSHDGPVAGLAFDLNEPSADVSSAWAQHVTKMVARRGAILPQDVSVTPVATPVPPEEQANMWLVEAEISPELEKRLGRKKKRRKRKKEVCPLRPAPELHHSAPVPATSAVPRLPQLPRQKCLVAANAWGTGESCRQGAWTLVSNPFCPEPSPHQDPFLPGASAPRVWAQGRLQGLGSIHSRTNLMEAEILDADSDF
UniProt Q0VGT2: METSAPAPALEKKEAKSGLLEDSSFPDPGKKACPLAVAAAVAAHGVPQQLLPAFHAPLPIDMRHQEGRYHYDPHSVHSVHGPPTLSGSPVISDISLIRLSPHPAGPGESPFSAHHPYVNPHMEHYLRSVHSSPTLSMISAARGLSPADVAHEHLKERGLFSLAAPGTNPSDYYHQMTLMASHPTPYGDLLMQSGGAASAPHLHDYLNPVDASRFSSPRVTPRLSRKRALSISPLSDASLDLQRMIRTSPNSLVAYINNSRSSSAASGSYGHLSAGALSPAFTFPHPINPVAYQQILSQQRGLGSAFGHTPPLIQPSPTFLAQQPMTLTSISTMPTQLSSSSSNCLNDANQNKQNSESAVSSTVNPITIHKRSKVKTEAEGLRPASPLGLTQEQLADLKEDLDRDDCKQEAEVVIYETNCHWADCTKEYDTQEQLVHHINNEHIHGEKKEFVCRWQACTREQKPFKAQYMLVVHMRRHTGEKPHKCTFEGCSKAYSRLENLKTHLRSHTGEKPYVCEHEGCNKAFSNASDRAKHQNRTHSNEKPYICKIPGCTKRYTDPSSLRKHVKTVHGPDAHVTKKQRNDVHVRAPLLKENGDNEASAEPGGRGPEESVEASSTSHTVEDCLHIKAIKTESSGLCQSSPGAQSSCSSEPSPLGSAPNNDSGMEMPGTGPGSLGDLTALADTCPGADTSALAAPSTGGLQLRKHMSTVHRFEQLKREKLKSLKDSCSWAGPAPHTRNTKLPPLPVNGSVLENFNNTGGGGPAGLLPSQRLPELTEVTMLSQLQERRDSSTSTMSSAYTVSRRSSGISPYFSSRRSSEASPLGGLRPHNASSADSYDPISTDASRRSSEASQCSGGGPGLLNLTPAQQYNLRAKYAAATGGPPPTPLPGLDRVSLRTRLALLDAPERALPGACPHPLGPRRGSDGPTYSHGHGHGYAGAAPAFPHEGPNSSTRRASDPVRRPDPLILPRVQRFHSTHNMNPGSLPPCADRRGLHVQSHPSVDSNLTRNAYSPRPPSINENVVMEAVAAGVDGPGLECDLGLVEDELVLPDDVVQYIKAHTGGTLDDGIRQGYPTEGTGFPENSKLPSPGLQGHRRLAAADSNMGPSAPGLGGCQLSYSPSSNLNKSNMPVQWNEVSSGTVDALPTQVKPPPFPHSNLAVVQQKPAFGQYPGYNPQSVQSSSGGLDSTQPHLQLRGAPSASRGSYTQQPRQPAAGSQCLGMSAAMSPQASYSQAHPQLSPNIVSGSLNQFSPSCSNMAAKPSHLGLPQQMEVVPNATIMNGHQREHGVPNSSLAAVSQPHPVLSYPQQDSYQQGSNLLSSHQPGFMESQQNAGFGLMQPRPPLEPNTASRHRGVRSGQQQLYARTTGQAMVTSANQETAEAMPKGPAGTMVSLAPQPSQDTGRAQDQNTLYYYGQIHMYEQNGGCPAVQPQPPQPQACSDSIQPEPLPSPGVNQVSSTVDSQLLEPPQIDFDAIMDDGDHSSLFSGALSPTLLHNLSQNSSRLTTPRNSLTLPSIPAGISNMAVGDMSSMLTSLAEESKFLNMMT

[1] = biological target: T2, Myc-tagged Vav2, full length (Vav2 FL) (UniProt P52735); assay: co-IP; anti-Myc immunoprecipitates from lysates of C3H10T1/2 cells transiently transfected with Myc-Vav2 constructs, blotted for endogenous Smo
T2 sequence: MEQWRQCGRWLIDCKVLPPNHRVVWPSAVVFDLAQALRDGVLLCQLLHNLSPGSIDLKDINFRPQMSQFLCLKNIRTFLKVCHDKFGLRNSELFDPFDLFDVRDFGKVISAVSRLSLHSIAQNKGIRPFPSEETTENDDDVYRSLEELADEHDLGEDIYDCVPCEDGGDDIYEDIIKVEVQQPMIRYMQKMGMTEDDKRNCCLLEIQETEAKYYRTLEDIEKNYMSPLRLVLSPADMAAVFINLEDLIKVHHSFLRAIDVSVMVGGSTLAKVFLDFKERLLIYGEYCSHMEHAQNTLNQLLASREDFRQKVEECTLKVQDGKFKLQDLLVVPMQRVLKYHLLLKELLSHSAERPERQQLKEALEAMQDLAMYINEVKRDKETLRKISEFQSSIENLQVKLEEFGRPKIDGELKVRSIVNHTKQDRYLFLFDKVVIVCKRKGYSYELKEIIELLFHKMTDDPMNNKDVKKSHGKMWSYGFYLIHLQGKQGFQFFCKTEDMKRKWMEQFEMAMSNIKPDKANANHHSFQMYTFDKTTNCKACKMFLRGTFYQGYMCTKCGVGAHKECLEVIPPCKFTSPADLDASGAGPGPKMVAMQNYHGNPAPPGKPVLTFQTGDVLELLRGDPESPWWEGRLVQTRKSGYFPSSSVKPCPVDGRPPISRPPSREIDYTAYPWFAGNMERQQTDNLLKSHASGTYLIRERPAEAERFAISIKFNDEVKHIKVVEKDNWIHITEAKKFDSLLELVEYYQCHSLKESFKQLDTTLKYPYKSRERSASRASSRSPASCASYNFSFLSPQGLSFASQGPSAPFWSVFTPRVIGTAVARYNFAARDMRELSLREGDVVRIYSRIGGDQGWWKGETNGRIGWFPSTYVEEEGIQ

[2] = biological target: T3, Myc-tagged N-terminus of Vav2 (Myc-Vav2-ΔC, aa 1-531) (UniProt P52735); assay: as above
T3 sequence: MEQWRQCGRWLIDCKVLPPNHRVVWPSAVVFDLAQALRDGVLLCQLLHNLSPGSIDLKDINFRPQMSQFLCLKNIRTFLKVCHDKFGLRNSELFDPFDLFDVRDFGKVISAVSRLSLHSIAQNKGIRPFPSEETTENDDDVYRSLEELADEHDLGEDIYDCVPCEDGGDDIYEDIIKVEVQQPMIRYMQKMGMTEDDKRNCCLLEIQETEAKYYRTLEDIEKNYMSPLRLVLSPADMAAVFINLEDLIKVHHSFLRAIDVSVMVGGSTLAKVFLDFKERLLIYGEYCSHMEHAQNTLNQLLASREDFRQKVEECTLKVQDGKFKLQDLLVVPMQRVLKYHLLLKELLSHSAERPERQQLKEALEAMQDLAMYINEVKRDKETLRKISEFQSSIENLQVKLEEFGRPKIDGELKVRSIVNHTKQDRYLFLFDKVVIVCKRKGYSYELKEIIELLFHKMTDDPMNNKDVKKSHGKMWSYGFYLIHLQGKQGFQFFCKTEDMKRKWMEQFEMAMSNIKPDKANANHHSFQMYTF

[3] = biological target: T4, Myc-tagged C-terminus of Vav2 (Myc-Vav2-ΔN, aa 532-877) (UniProt P52735); assay: as above
T4 sequence: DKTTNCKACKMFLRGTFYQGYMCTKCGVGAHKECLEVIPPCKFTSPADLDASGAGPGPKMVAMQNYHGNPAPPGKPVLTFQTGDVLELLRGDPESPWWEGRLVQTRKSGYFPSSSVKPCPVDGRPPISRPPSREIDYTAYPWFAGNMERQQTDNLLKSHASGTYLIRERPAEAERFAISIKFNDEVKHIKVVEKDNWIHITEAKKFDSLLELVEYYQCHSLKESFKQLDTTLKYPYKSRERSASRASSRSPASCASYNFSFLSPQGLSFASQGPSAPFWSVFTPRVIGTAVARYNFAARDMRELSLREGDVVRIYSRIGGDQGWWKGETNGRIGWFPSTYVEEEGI

[4] = biological target: T5, Vav2, endogenous (mouse (endogenous in C3H10T1/2)) (UniProt Q60992); assay: co-IP; endogenous proteins; anti-Vav2 or anti-Smo immunoprecipitates from total C3H10T1/2 cell lysates, blotted for Smo, Vav2 or phospho-Vav2; cells with or without N-Shh 100 ng/ml 24 h; IgG as negative control
T5 sequence: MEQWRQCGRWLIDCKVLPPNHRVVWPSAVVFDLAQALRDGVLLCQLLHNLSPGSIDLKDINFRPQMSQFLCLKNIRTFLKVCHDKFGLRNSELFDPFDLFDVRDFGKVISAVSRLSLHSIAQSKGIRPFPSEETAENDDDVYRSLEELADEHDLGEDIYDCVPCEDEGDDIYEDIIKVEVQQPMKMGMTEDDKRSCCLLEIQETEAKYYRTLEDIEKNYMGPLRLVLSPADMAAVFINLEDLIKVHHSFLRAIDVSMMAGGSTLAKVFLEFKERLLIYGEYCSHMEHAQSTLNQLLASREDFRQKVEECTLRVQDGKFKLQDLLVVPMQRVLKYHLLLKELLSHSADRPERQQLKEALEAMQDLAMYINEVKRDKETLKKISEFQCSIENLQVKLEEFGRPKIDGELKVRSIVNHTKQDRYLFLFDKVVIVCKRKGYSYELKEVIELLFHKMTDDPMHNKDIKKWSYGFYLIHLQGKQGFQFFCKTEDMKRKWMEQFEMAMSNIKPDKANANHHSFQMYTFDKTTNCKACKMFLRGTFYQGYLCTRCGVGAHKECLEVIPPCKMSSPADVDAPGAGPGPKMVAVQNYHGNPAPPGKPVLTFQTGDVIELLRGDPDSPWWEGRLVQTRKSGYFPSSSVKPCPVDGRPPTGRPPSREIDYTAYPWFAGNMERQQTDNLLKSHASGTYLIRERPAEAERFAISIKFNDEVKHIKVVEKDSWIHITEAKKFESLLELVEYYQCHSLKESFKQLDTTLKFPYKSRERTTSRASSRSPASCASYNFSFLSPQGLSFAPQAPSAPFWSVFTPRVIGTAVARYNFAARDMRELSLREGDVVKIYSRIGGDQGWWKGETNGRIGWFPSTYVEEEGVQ

[5] = biological target: T6, Suppressor of Fused (SuFu), endogenous (mouse (endogenous in C3H10T1/2)) (UniProt Q9Z0P7); assay: co-IP; anti-SuFu immunoprecipitates from total C3H10T1/2 cell lysates, blotted for Gli1 or Gli2; IgG as negative control; cells with or without daRac1, NSC23766 10 μg/ml 24 h, IPA-3 1 μM 24 h, shIFT88
T6 sequence: T1 sequence

Q: How did the binding (Myc-SuFu) turn out when HA-Gli1 (from UniProt P47806 1-1111) was run?
A: The binding was “binds”.

Q: “Smoothened (Smo), endogenous (from UniProt P56726 33-793) (receptor)” was tested. Which binding [1] did it give?
A: Its binding is “binds”.

Q: What about the binding [2] of the same substance?
A: Its binding is “no binding”.

Q: What about the binding [3] of the same substance?
A: The binding was “binds”.

Q: And the binding [4]?
A: The binding was “binds”.

Q: How did the binding [5] turn out when “Gli2, endogenous (from UniProt Q0VGT2 1-1544)” was run?
A: The binding was “binds”.

Q: How did the binding [5] turn out when “Gli1, endogenous (from UniProt P47806 1-1111)” was run?
A: Its binding is “binds”.

Reference: paper PMC8771550
